This note sets out measurements from ChEMBL document CHEMBL2331288 (Bioorg Med Chem Lett, 2013).

The structures appear in SMILES notation.

The target in the assay is T1, Interstitial collagenase (Homo sapiens, UniProt P03956).
T1 sequence (P03956 whole entry): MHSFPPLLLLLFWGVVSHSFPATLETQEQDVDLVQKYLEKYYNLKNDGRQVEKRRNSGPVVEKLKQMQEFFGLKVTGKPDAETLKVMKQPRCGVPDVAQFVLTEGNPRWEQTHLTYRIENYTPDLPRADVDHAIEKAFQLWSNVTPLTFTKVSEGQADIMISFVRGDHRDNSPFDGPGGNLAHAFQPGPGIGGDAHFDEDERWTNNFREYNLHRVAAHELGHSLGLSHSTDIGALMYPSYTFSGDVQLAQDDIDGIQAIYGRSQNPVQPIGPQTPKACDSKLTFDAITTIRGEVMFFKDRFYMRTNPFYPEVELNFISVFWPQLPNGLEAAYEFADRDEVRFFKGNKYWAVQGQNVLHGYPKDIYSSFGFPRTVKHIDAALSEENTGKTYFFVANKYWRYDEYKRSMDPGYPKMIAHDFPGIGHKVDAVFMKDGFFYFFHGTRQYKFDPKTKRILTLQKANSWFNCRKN
On to `O=C(/C=C/c1cccc(O)c1)Nc1cccc(Cl)c1`, for which the IC50 amounted to 3.35 µM. This counts as single-digit micromolar. The compound `O=C(/C=C/c1ccc(O)cc1)Nc1ccccc1O` came in with an IC50 of 5.06 µM.

Regarding `O=C(/C=C/c1ccc(O)cc1)Nc1cccc(O)c1`, half-maximal inhibition (IC50) was put at 5.35 µM.

Turning to `O=C(/C=C/c1ccc(O)cc1)Nc1ccc(F)cc1`, it took 4.54 µM to reach half-maximal inhibition (IC50). The compound `O=C(/C=C/c1ccc(O)cc1)Nc1ccccc1Cl` returned an IC50 of 3.45 µM. This IC50 and that of the compound before are within 1.5-fold of each other. As for `O=C(/C=C/c1ccc(O)cc1)Nc1ccc(Cl)cc1`, the IC50 amounted to 3.57 µM. `COc1cccc(NC(=O)/C=C/c2ccccc2)c1` gave an IC50 of 5.26 µM. `O=C(/C=C/c1ccccc1)Nc1cccc(F)c1` registered an IC50 of 4.19 µM. The IC50 values of the last two compounds are within 1.5-fold of each other. Consider `O=C(/C=C/c1cccc(O)c1)Nc1cccc(O)c1`, for which the midpoint of inhibition, the IC50, lay at 5.28 µM. In turn, `Cc1cccc(NC(=O)/C=C/c2cccc(O)c2)c1` came in with an IC50 of 4.77 µM. The result for `O=C(/C=C/c1ccccc1)Nc1ccccc1Cl` [N-(2-CHLOROPHENYL)CINNAMAMIDE] reads 3.16 µM; that for `COc1ccccc1NC(=O)/C=C/c1ccccc1` [N-(2-METHOXYPHENYL)CINNAMAMIDE], 5.18 µM; that for `O=C(/C=C/c1ccccc1)Nc1ccc(F)cc1` [N-(4-FLUOROPHENYL)CINNAMAMIDE], 4.26 µM.
